{
  "source": "PubChem BioAssay AID588342",
  "about": "(National Center for Advancing Translational Sciences (NCATS), 2011)",
  "note": "Out of some 360,000 compounds screened, about 25,000 (6.9%) were called active. The inconclusive results got no clear call from the source; some entries with a clear call stand among them for comparison. Calls come from the whole dose curve; as a rule, active = well fitted inhibition curve with a large enough effect; inconclusive = small, poorly fitted or top-dose-only effect; inactive = flat fitted curve, though single readings scatter. Where the call is inconclusive, the potency comes from a doubtful curve fit. Potency is the fitted concentration of half-maximal effect; tags give direction and shape of the fitted curve.",
  "data": [
    {"biological_target": "Luciferin 4-monooxygenase (Photinus pyralis) (UniProt P08659)", "sequence (P08659 whole entry, looked up)": "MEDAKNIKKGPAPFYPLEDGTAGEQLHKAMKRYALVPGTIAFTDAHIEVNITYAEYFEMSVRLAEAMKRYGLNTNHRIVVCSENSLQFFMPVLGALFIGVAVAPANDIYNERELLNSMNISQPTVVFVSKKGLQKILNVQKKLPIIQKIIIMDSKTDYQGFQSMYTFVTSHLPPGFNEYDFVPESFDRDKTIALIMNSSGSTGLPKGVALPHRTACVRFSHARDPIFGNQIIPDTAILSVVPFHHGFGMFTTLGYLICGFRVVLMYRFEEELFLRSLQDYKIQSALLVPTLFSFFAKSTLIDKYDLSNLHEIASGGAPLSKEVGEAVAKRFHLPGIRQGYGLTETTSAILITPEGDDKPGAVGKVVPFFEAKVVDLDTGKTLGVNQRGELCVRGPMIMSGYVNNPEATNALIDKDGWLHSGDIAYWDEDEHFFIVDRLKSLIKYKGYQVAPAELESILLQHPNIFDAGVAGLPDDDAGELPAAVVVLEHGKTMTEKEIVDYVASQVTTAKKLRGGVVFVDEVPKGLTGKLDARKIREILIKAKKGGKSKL", "test": "qHTS profiling assay for firefly luciferase inhibitor/activator using purifed enzyme and Km concentrations of substrates (counterscreen for miR-21 project); note: nearly all actives have a fitted effect of over 55% in size;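 for activity change, negative = inhibition: plate controls were vehicle for no effect and reference inhibitor for full effect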", "conditions": "purified FLuc, luminescence inhibition; activity change, negative = inhibition: at 57.5 µM (top of the series)", "how_it_was_run": "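Purified P. pyralis luciferase, 10 nM final, with Km-level 10 uM D-luciferin and 10 uM ATP in 50 mM Tris acetate pH 7.5, 10 mM Mg acetate, 0.01% Tween-20, 0.05% BSA; 6-point qHTS titration about 60 µM downward; luminescence read.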", "values": [
      {"smiles": "COC(=O)c1ccc(N/C=C\\C(=O)c2ccc3c(c2)OCO3)cc1", "Potency": "inconclusive: 0.338 µM [inhibitor, partial curve, poor fit]"},
      {"smiles": "Nc1ccc(/C=C/c2ccc3ncccc3c2)cc1", "Potency": "active: 0.301 µM"},
      {"smiles": "Cc1ccc(SCc2nn(C)c(Cl)c2C=O)cc1", "Potency": "inconclusive: 37.9 µM [inhibitor, single point]"},
      {"smiles": "O=C(c1cc(-c2ccc(Cl)cc2)on1)N1CCc2ccccc2C1", "Potency": "inconclusive: 21.3 µM [inhibitor, partial curve, poor fit]"},
      {"smiles": "O=C1C=C(c2ccccc2)C(=O)N1Nc1ccccc1", "Potency": "inconclusive: 21.3 µM [inhibitor, single point]"},
      {"smiles": "Cc1ccc2nc(N3C(=O)C(O)=C(C(=O)c4ccc(C)o4)C3c3cccc(O)c3)sc2c1", "note": "(stereo not given)", "Potency": "inconclusive: 19 µM [inhibitor, partial curve]"},
      {"smiles": "O=C(N/N=C/c1ccc(OC(F)F)cc1)c1ccc(CSc2nc3ccccc3[nH]2)cc1", "Potency": "active: 16.9 µM"},
      {"smiles": "COc1cccc(/C=N/NC(=O)C[n+]2ccccc2)c1O", "Potency": "inconclusive: 30.1 µM [inhibitor, partial curve, poor fit]"},
      {"smiles": "O=[N+]([O-])c1ccc(N2CCc3ccccc3C2)nc1", "Potency": "inconclusive: 21.3 µM [inhibitor, single point]"},
      {"smiles": "CCc1c(C(=O)N/N=C/c2ccc(C)o2)csc1C", "Potency": "inconclusive: 13.5 µM [inhibitor, partial curve, poor fit]"},
      {"smiles": "CC(=N\\NC(=O)c1ccccc1)/C(=N/O)C(=O)Nc1ccccc1", "activity change, negative = inhibition": "inactive: -1.42%"},
      {"smiles": "OC(COc1ccc2c(c1)CCC2)Cn1cnc2ccccc21", "note": "(stereo not given)", "Potency": "inconclusive: 23.9 µM [inhibitor, single point]"},
      {"smiles": "CN1C(=O)/C(=N/OC(=O)c2ccccc2)c2ccccc21", "Potency": "active: 7.57 µM"},
      {"smiles": "Cc1cc(C)cc(NC(=O)c2ccc3c(O)c(S(=O)(=O)c4ccccc4)c(=O)[nH]c3c2)c1", "Potency": "inconclusive: 10.7 µM [inhibitor, partial curve]"},
      {"smiles": "CCOC(=O)C(C)Oc1ccc(OCc2ccccc2)cc1", "note": "(stereo not given)", "Potency": "inconclusive: 33.8 µM [inhibitor, single point]"},
      {"smiles": "COC(=O)c1ccc2c(c1)NC1=C(C(=O)CC(C)(C)C1)C(c1ccncc1)N2", "note": "(stereo not given)", "Potency": "inconclusive: 26.9 µM [inhibitor, partial curve, poor fit]"},
      {"smiles": "c1ccc(-c2cc(CSc3nc4ccccc4[nH]3)on2)cc1", "Potency": "inconclusive: 37.9 µM [inhibitor, partial curve, poor fit]"},
      {"smiles": "Cc1ccc(OCC(=O)N(Cc2ccco2)c2ccccn2)cc1", "activity change, negative = inhibition": "inactive: -28.7%"},
      {"smiles": "CCOC(=O)c1c(C)[nH]c(C)c1S(=O)(=O)N1CCCC(C(=O)Nc2ccc(C)c(N(C)C)c2)C1", "note": "(stereo not given)", "activity change, negative = inhibition": "inactive: -11.6%"},
      {"smiles": "CCC(=O)Nc1ccccc1-c1nnn(CC(=O)N2c3ccccc3CC2C)n1", "note": "(stereo not given)", "activity change, negative = inhibition": "inactive: 11.1%"},
      {"smiles": "COc1ccc(/C(C)=N/Nc2nc3ccccc3nc2C)cc1", "Potency": "active: 2.69 µM"},
      {"smiles": "COc1ccc(NC(=O)c2ccc3nc[nH]c3c2)cc1", "Potency": "inconclusive: 26.9 µM [inhibitor, partial curve]"},
      {"smiles": "COc1cccc(/C=N/NC(=O)c2cc(-c3cccn3C)n[nH]2)c1", "Potency": "inconclusive: 23.9 µM [inhibitor, partial curve]"},
      {"smiles": "O=C1/C(=C/c2ccccc2)SC(=S)N1CC(=O)N1CCCCC1c1cccnc1", "note": "(stereo not given)", "Potency": "inconclusive: 16.9 µM [inhibitor, partial curve, poor fit]"},
      {"smiles": "O=C(NCCCn1ccnc1)Nc1ccc2c(c1)OCO2", "Potency": "inconclusive: 30.1 µM [inhibitor, single point]"},
      {"smiles": "CCOC(=O)c1cc(C#N)c(=S)[nH]c1C", "Potency": "inconclusive: 9.53 µM [inhibitor, partial curve, poor fit]"},
      {"smiles": "O=C(Nn1c(-c2ccc(Br)cc2)nc2ccccc2c1=O)c1ccncc1", "Potency": "inconclusive: 30.1 µM [inhibitor, single point]"},
      {"smiles": "O=C(CCSCc1ccccc1Cl)NC1CCCCC1", "Potency": "inconclusive: 19 µM [inhibitor, partial curve, poor fit]"},
      {"smiles": "CCn1c(C(=O)NCc2ccc(OC)cc2)cc2sc(Cl)cc21", "Potency": "inconclusive: 12 µM [inhibitor, partial curve, poor fit]"},
      {"smiles": "O=C(NCc1ccccc1)c1cc(-c2cccc(O)c2)on1", "Potency": "inconclusive: 8.49 µM [inhibitor, partial curve, poor fit]"},
      {"smiles": "CCn1cc(C(=O)N2CCN(c3ccccc3)CC2)c(=O)c2cc(S(=O)(=O)N3CCCC3)ccc21", "activity change, negative = inhibition": "inactive: 0.0042%"},
      {"smiles": "COc1cccc(C(=O)Nc2nc3nc(C)c(C)c(=O)n3[nH]2)c1", "Potency": "inconclusive: 19 µM [inhibitor, partial curve, poor fit]"},
      {"smiles": "CCc1ccc(-c2ccc(C(=O)O)c(C)n2)cc1", "Potency": "inconclusive: 23.9 µM [inhibitor, partial curve]"},
      {"smiles": "O=C(N/N=C/c1cc(Br)ccc1O)c1cccc(N2CCCC2=O)c1", "Potency": "active: 16.9 µM"},
      {"smiles": "O=C(Nc1cccc(F)c1)c1cccnc1NCCc1ccccc1", "Potency": "inconclusive: 37.9 µM [inhibitor, partial curve, poor fit]"},
      {"smiles": "Cc1ccc(C)n1-c1ccc(C(=O)NCC2CCCO2)cc1", "note": "(stereo not given)", "Potency": "inconclusive: 26.9 µM [inhibitor, single point]"},
      {"smiles": "O=C(CSc1nnc(NC(=O)c2ccccc2)s1)NCC1CCCO1", "note": "(stereo not given)", "Potency": "active: 4.26 µM"},
      {"smiles": "C#Cc1cccc(NC(=O)c2ccc3c(c2)C(=O)N(Cc2cccnc2)C3=O)c1", "Potency": "active: 13.5 µM"},
      {"smiles": "Cc1cccc(C(=O)N2CCCC(N3CCN(c4ccccc4)CC3)C2)n1", "note": "(stereo not given)", "activity change, negative = inhibition": "inactive: 4.04%"},
      {"smiles": "COc1ccc(NC(=O)CSc2ccc3ccccc3c2)cc1S(=O)(=O)N1CCCCC1", "Potency": "inconclusive: 16.9 µM [inhibitor, partial curve]"},
      {"smiles": "Oc1c(C(c2ccc(Cl)cc2)N2CCCC2)sc2nc(-c3ccco3)nn12", "note": "(stereo not given)", "activity change, negative = inhibition": "inactive: -18.8%"},
      {"smiles": "O=C(O)COc1ccc(Br)cc1CP(=O)(c1ccccc1)c1ccccc1", "activity change, negative = inhibition": "inactive: -3.56%"},
      {"smiles": "O=C(O)COc1ccc2c(c1)O/C(=C\\c1cccs1)C2=O", "Potency": "active: 1.9 µM"},
      {"smiles": "Cc1cccc(Nc2nc(N)nc(CCl)n2)c1", "Potency": "inconclusive: 37.9 µM [inhibitor, single point]"},
      {"smiles": "COc1ccc(C2(O)C(=O)Nc3ccc(C)cc32)cc1OC", "note": "(stereo not given)", "activity change, negative = inhibition": "inactive: 3.36%"}
    ]}
  ]
}
